Screen size: about 310,000 compounds; about 14,000 (4.5%) showed an effect of 50% or more. Effects have a minus sign here. The list shows a part of the results.
Target: human ether-à-go-go-related gene (hERG) potassium channel (human, UniProt Q12809)
Assay: primary screen, population patch clamp on CHO cells stably expressing hERG
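Also: peak tail current of the secondary pulse compared with the same well before compound.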

Sequence of human ether-à-go-go-related gene (hERG) potassium channel (Q12809 whole entry, looked up): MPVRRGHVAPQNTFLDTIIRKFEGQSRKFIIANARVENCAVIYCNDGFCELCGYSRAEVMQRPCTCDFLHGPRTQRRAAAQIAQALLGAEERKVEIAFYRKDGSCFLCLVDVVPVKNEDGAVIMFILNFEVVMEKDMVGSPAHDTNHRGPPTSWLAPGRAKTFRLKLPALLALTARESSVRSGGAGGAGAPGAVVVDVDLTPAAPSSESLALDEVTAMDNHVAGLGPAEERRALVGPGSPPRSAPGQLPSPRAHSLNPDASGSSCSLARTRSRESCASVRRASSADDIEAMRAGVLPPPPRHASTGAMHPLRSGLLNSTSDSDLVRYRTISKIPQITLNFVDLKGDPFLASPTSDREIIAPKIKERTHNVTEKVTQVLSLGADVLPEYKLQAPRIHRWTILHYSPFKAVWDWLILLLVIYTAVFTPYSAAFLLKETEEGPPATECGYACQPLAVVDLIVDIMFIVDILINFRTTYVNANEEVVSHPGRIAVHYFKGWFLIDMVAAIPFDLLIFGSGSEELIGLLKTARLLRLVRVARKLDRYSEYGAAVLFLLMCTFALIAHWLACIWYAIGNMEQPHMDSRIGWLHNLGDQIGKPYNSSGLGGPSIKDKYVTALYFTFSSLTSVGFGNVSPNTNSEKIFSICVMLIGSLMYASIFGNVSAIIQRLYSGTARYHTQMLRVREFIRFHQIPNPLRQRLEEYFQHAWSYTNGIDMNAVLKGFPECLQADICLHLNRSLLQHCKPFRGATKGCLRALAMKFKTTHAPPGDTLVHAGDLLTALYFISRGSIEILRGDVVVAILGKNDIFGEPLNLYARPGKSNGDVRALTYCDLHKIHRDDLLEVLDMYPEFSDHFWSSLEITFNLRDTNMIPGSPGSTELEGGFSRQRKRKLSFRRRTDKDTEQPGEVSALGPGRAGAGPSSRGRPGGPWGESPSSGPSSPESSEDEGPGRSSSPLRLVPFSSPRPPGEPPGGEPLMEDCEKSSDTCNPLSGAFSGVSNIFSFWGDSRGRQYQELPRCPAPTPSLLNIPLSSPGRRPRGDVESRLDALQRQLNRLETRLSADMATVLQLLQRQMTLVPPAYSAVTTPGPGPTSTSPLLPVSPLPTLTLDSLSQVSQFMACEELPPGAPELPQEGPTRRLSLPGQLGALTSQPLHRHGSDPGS

Row | Structure (SMILES) | hERG current change (%, negative = inhibition) at 10uM [%]
1 | O=C(O)/C=C\C(=O)Nc1ccc(N2CCN(c3ccc(F)cc3)CC2)cc1 | -0.0699
2 | O=C(O)C(=O)O.OC(CNCc1ccccc1)Cn1ccc2ccccc21 (stereo not drawn) | -21.3
3 | Cc1ccc(CN2CCC(CNC(=O)c3ccc(NC(=O)C4=CSCCO4)cc3)CC2)cc1 | -49
4 | O=C(N/N=C/c1cccc(Cl)c1Cl)Nc1ccccc1 | -1.02
5 | CC(C)Oc1ccc(S(=O)(=O)N2CCOCC2)cc1NC(=O)C(C)Oc1ccc(F)cc1 (stereo not drawn) | -2.05
6 | CC1(C)CC(=O)C(C=NCCN2CCN(C(=S)NC3CCCCC3)CC2)=C(O)C1 | -41.1
7 | COc1ccc(NC(=O)CCCn2c(=O)c3sccc3n(Cc3ccccc3C)c2=O)cc1 | -45.7
8 | CCCc1oc(C(=O)O)cc1CN1CCCC1.Cl | 2.48
9 | CCn1cc(CNC(=O)c2cccc([N+](=O)[O-])c2)c(C)n1 | 8.09
10 | CCCC(=O)N1CCN(c2ccc(NC(=O)c3cccs3)cc2Cl)CC1 | -66.8
11 | CN(C)/C=C(\C=O)c1cccc(Cl)c1 | 15.4
12 | Fc1ccc(-[n+]2nc(Nc3ccccc3)sc2-c2c3ccccc3cc3ccccc23)cc1.[Cl-] | 18.2
13 | CC(NC(=O)Cc1ccc(NS(=O)(=O)c2cccc(C(F)(F)F)c2)cc1)c1ccccn1 (stereo not drawn) | -7.55
14 | Cn1nc(C(=O)Nc2ccccc2)c2c1-c1ccccc1S(=O)(=O)C2 | -0.138
15 | CCOC(=O)C(C(=O)N1CCOCC1)C1CCCCC1 (stereo not drawn) | 12.2
16 | Cc1ccc(CN2CCN(C(=O)CCN3C(=O)c4ccccc4C3=O)CC2)cc1 | -55.4
17 | O=C(Nc1ccccc1)C1=C[C@H](c2coc3ccccc3c2=O)C[C@H](OCc2ccc(CO)cc2)O1 | -32.4
18 | O=C(CSc1nc(-c2ccc(F)cc2)cs1)N1CCN(C(=O)c2ccco2)CC1 | -57
19 | COc1ccccc1CNC(=O)CN(C)S(=O)(=O)c1ccc2c(c1)n(C)c(=O)c(=O)n2C | -6.4
20 | N#Cc1c2n(c(=S)n(-c3ccccc3)c1=O)CCCCC2 | 3.42
21 | Cc1ccc(CNc2ccc(N3CCOCC3)cc2)cc1 | -6.93

Row | Structure (SMILES) | hERG current change (%, negative = inhibition) at 10uM [%]
22 | Fc1ccccc1OCCSc1ncnc2nc[nH]c12 | 5.08
23 | CCc1nnc(NC(=O)CSc2nnc(CCc3nc4ccccc4[nH]3)n2C)s1 | 23.1
24 | CN1CCN(C(=O)CN(c2ccccc2)S(=O)(=O)N(C)C)CC1 | 31.2
25 | CCOC(=O)N1CCC(N2C(=O)c3ccccc3C2Nc2ccc(S(=O)(=O)N3CCCCC3)cc2)CC1 (stereo not drawn) | -58
26 | CC(C)(C)c1ccc(-c2nc3n(c(=O)c2C#N)CCS3)cc1 | -5.18
27 | CN(c1cccc(NC(=O)COc2ccccc2)c1)S(C)(=O)=O | -23.3
28 | COc1cccc(C2=NOC(C(=O)N3CCC4(CC3)OCCO4)C2)c1 (stereo not drawn) | -15.7
29 | Cc1ccc(S(=O)(=O)N2CCC(NC(=O)c3cccnc3)CC2)cc1Cl | -2.56
30 | CCc1nnc(SCC(=O)NCCC2=CCCCC2)nc1CC | -7.09
31 | CC(C)(C)CC(=O)NCCc1csc(-c2ccccc2)n1 | -7.63
32 | Cc1onc(-c2ccccc2)c1C(=O)OCC(=O)Nc1cc(S(=O)(=O)N2CCOCC2)ccc1Cl | 8.31
33 | CCCCCN(C(=O)CN(C)Cc1ccc(OC)cc1OC)c1c(N)n(CCCC)c(=O)[nH]c1=O | 4.94
34 | COc1ccc(/C=C/c2c(-c3cccc(C)c3)oc3ccc(-c4ccc5c(c4)OCO5)cc23)cc1 | 4.32
35 | Cc1cccc(-c2noc(CN(C(C)C)S(=O)(=O)c3ccc(F)cc3)n2)c1 | 5.51
36 | COc1ccc(CCNC(=O)c2c(Cl)ccc(Cl)c2OC)cc1OC | -8.6
37 | COc1ccc(NC(=O)c2ccc(C(=O)c3ccccc3)o2)cc1 | 11.2
38 | CCN(CC)C(=O)CN(c1cc(Cl)ccc1OC)S(=O)(=O)c1ccc(C)c([N+](=O)[O-])c1 | 18.7
39 | CCC(C)Nc1ccc(NC(C)CC)cc1 (stereo not drawn) | -19.8
40 | CC(C)(C)c1ccc(S(=O)(=O)N2CCN(CCC#N)CC2)cc1 | 8.07
41 | Cc1nnsc1C(=O)N1CCN(c2cc(C(F)(F)F)ccn2)CC1 | -6.79
42 | O=C(CCCC(=O)OCC(F)(F)C(F)F)Nc1ccc(NC(=O)CCCC(=O)OCC(F)(F)C(F)F)cc1 | 26

Row | Structure (SMILES) | hERG current change (%, negative = inhibition) at 10uM [%]
43 | O=C(Cn1nc(-c2ccccc2F)ccc1=O)Nc1ccc(S(=O)(=O)N2CCCCCC2)cc1 | 22
44 | COc1ccc(C(=O)/C=C2\Sc3ccccc3N2C)cc1 | 11.1
45 | COc1ccc(C(=O)OCC(=O)Nc2ccc(F)cc2F)cc1OC | 12
46 | Cc1ccc(CNC(=O)c2ccccc2NC(=O)C2=CSCCO2)cc1 | -9.42
47 | Cc1cccc(C(=O)NC2CCN(S(=O)(=O)c3ccccc3)CC2)c1 | 3.41
48 | CCN1C(=O)CSc2ccc(C(=O)NCc3ccccc3OC)cc21 | -12.7
49 | Cc1ccc(NP(=O)(Nc2ccc(C)cc2)Oc2ccccc2)cc1 | -3.29
50 | O=C(O)/C=C\C(=O)O.O=[N+]([O-])c1ccc2nc(N3CCNCC3)ccc2c1 | -14.4
51 | Nc1ncnc2c1nc(Br)n2[C@@H]1O[C@@H]2COP(=O)([O-])O[C@H]2[C@H]1O.[Na+] | 7.03
52 | Cc1ccc(S(=O)(=O)CCN2CCC(n3cccc3)CC2)cc1 | 2.58
53 | CC(CN1CCN(C)CC1)OC(=O)c1ccc(Cl)cc1.Cl (stereo not drawn) | -19.9
54 | CCN(CC(=O)Nc1ccccc1C(F)(F)F)C(=O)COc1cccc2c1OC(C)(C)C2 | -8.33
55 | CCOC(=O)C1CCN(C(=O)C2CC(=O)N(c3ccc(C)cc3)C2)CC1 (stereo not drawn) | -34.2
56 | O=C(Nc1ccccc1C(F)(F)F)C(O)(c1ccccc1)C1CCCCC1 (stereo not drawn) | 17.4
57 | CCC(CO)Nc1ccc([N+](=O)[O-])c2cccnc12 (stereo not drawn) | -42.7
58 | CCOc1ccc(/C=C2\SC(=O)N(CCNC(=O)CN3C(=O)NC4(CCCC4)C3=O)C2=O)cc1OC | 14.1
59 | CC1(c2ccccc2)NC(=O)N(Cc2ccc([N+](=O)[O-])cc2)C1=O (stereo not drawn) | -31
60 | COC(=O)c1ccccc1NC(=O)Cn1cnc2ccc(S(=O)(=O)N3CCC(C)CC3)cc2c1=O | 7.62
61 | CC(C)OCCCNC(=O)c1cc(-c2cccnc2)nc2ccccc12 | -21.4
62 | O=C(NNC(=O)c1cc(-c2ccncc2)nc2ccccc12)Nc1ccc(F)cc1 | 5.44
63 | O=C(O)c1ccccc1-c1nc(-c2ccccc2)c(-c2ccccc2)[nH]1 | 27.1

Row | Structure (SMILES) | hERG current change (%, negative = inhibition) at 10uM [%]
64 | CCn1nnnc1SCC(=O)Nc1ccc2c(c1)OCCO2 | 1.1
65 | O=C(Nc1cnc2ccccc2c1)N1CCOCC1 | 6.58
66 | CCOc1ccccc1NC(=O)CSc1nnc(C2CC2)n1CC | 17
67 | CCc1ccc(NC(=O)N(CCCN2CCOCC2)C(C)c2cc3cccc(OC)c3o2)cc1 (stereo not drawn) | -49.7
68 | CCC(C(=O)NC(C)(C)C)N(Cc1cccs1)C(=O)CNS(=O)(=O)c1ccccc1 (stereo not drawn) | -5.88
69 | O=C(NCCC(=O)N(Cc1ccco1)Cc1cccs1)c1ccc(Br)cc1 | -58.7
70 | Cc1cc(=O)oc2c1c(C(F)(F)F)nn2-c1ccccc1 | 14
71 | O=C(O)CCc1nc2cc(C(F)(F)F)ccc2n(Cc2ccccc2)c1=O | 23.8
72 | C/C(=N\NC(N)=S)C1(C)CC2(CC(C)(C)OC2=O)C(=O)O1 (stereo not drawn) | 6.91
73 | CCCC(=O)Nc1ccccc1-c1nnn(CC(=O)Nc2ccc(OC)cc2)n1 | -7.55
74 | CN(C)CC/C=C1/c2ccccc2CS(=O)(=O)c2ccccc21 | 10.2
75 | O=C(Cc1ccccc1)c1c[nH]c(C(=O)NCCCN2CCOCC2)c1 | -12
76 | Cc1ccc(S(=O)(=O)N(CCCO)CC(O)CON=C2c3ccccc3-c3ccccc32)cc1 (stereo not drawn) | 14.4
77 | O=C(NNC(=O)c1cccc(S(=O)(=O)Nc2ccc(Cl)cc2)c1)c1ccc(=O)[nH]c1 | -4.2
78 | CCc1cc2ccc(C)cc2nc1SCC(=O)N1CCN(C(=O)c2ccco2)CC1 | -56
79 | CCOc1ccc(NC(=O)CNC(=O)c2ccc(OC)cc2)cc1 | 0.119
80 | Cc1ccc(NCc2nnc(SCC(=O)NNC(=O)Cc3ccccc3)n2C)cc1 | 14.2
81 | C=CCN1C(=O)C(Cc2ccc(C)cc2)S/C1=N/N=C/c1ccco1 (stereo not drawn) | 10
82 | CC(NC(=O)CSc1nc2ccccc2c(=O)[nH]1)c1ccccc1 (stereo not drawn) | -3.63
83 | Cc1ccc(Nc2nc(N)nc(CSc3ncccn3)n2)cc1 | -18.7
84 | CC(NC(=O)C1CCN(C(=O)Nc2ccccc2)CC1)c1ccccc1 (stereo not drawn) | -6.12

— paper PMC4336329 (PLoS ONE, 2015)
